# Laboratory results as given in PubChem BioAssay AID1346428 (National Center for Advancing Translational Sciences (NCATS), 2018).
# Hit rate of the full screen: of about 48,000 compounds, about 1,200 (2.5%) were called active. Roughly 2% stayed inconclusive and do not appear here.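 How the source made its calls: active means activation of at least 60% and not above a set upper limit (about 1 call in 100 departs from these limits); inconclusive means activation of 40% to 60%, or above that upper limit; inactive means activation under 40%.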 Some of the results follow.
# Molecular target: Probable G-protein coupled receptor 32 (Homo sapiens) (UniProt O75388)
# Assay: qHTS for Agonists of Human Resolvin D1 Receptor DRV1; further: 0% is about no effect
# Details: CHO-K1 GPR32 beta-arrestin PathHunter luminescence, 90 min; at 76.9 µM; stronger effect = higher value; zero percent set by DMSO-only wells
# Summary of the method: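 Cells are plated overnight, treated with compounds in DMSO for 90 minutes at 37 °C, and developed with PathHunter detection reagent for 1 hour before luminescence is read; signal reflects beta-arrestin binding to GPR32 in engineered CHO-K1 cells.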
# Chain of UniProt O75388 (O75388 whole entry, looked up): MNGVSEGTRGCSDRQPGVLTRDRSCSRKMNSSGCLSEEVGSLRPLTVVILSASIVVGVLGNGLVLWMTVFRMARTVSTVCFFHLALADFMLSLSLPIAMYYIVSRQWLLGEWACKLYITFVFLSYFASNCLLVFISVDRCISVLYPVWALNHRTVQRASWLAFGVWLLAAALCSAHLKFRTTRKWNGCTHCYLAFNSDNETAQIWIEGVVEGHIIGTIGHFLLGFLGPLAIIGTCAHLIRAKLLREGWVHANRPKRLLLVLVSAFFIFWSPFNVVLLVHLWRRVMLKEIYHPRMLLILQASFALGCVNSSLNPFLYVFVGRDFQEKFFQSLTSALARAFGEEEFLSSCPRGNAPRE
row,SMILES,activation
1,COc1cccc(Cn2c(=O)n(CC3CCC(C(=O)N4CCOCC4)CC3)c(=O)c3sccc32)c1 (centres undefined),inactive: -5.14%
2,Cc1oc2ncn(CC(C)C)c(=O)c2c1C(=O)NCCCN1CCCCC1C (centres undefined),inactive: 7.09%
3,CCc1ccc2c(c1)c(=O)c(C(=O)c1ccc(C)cc1)cn2CC(=O)Nc1ccccc1C,inactive: -10.3%
4,CCc1ccc2c(c1)c(=O)c(C(=O)c1ccccc1)cn2CC(=O)Nc1ccc(C)c(Cl)c1,inactive: 4.8%
5,C#CC(N)CCC(=O)O (centres undefined),inactive: 0.435%
6,COc1ccc(-c2nnc(SCC(=O)NCCc3ccccc3)nc2-c2ccc(OC)cc2)cc1,inactive: -34.2%
7,Cc1cccc(C)c1OCC(=O)Nc1c(C(=O)c2ccccc2)oc2ccccc12,inactive: 0.671%
8,CCc1ccccc1NC(=O)c1ncoc1-c1ccco1,inactive: -3.51%
9,COc1ccc(-c2c(C)nn3c(-c4ccccc4)cc(-c4ccccc4)nc23)cc1,inactive: 5.12%
10,Cc1ccc(NC(=O)CSc2nc3nccnc3c(=O)n2CCc2c[nH]c3ccccc23)c(C)c1,inactive: -7.59%
11,COCCCNC(=O)c1ccc(Cn2c(=O)c3ccccc3n(CC(N)=O)c2=O)cc1,inactive: -1.64%
12,CCOC(=O)c1ccc(NC(=O)CSc2nc3ncc(Br)c(C)c3[nH]2)cc1,inactive: -6.68%
13,CC(=O)Oc1ccccc1C(=O)Nc1ncc([N+](=O)[O-])s1,inactive: -17.6%
14,CC(C)(C)C(=O)Nc1cc(-c2cccc(Br)c2)nn1-c1ccccc1,inactive: -0.567%
15,CCN(C(=O)c1ccc2c(c1)N(Cc1cccc(Cl)c1)C(=O)c1ccccc1S2=O)c1ccccc1 (centres undefined),inactive: -29.1%
16,COc1ccc(-c2cc3nc(N)cc(=O)n3[nH]2)cc1,inactive: 2.46%
17,CCC(=O)N1c2ccccc2CC1C(=O)NCCCN1CCN(c2cc(C)ccc2C)CC1 (centres undefined),inactive: 3.56%
18,CC(C)c1ccc2oc(-c3ccc(Cl)c(NC(=O)c4cccs4)c3)nc2c1,inactive: -1.43%
19,O=C(NCCCc1nc2ccccc2n1Cc1ccc(F)cc1)C1CCCCC1,inactive: -4.59%
20,Cc1ccc(C)c(CSc2nc3c([nH]c4ccccc43)c(=O)n2C)c1,inactive: 6.2%
21,COc1ccc(NC(=O)c2cc(S(=O)(=O)N3CCOCC3)cn2C)cc1Cl,inactive: -0.365%
22,Cc1ccc(C(=O)Nc2ccc(F)cc2)cc1S(=O)(=O)N1CCCCCC1,inactive: -0.644%
23,Cn1nc(-c2ccc(OCC(=O)Nc3cccc(C(F)(F)F)c3)cc2)c2ccccc2c1=O,active: 84.7%
24,Cc1cccc(C)c1OCc1cc(=O)n2c(-c3ccccc3)csc2n1,inactive: -1.02%
25,COc1cccc2c1cc1c(=O)n(CC(=O)N3CCN(c4ccccc4F)CC3)nc(C)n12,inactive: -5.24%
26,O=C1CS(=O)(=O)C2(C(=O)Nc3ccccc32)N1c1cccc(Cl)c1 (centres undefined),inactive: 0.999%
27,CCOc1ccc(NC(=O)CCCc2nc(-c3cccc(OC)c3)no2)cc1,inactive: -14.4%

row,SMILES,activation
1,Oc1cc(O)c2c(c1)O[C@H](c1ccc(O)c(O)c1)[C@@H](O)C2,inactive: -13.2%
2,Cc1ccc(CNC(=O)c2sc3nc(C)cc(C)c3c2-n2cccc2)cc1,inactive: 27%
3,CCCCc1nn2c(=O)cc(COC(=O)c3cccc(NC(=O)COc4ccccc4)c3)nc2s1,inactive: -10.2%
4,Cc1ccc(C2=NN(CC(=O)NCCCN(CC(C)C)CC(C)C)C(=O)CC2)cc1,inactive: -3.64%
5,O=C(NC1CCCCCC1)C1CCN(C(=O)N2CCOc3ccc(Cl)cc32)CC1,inactive: 2.6%
6,C[N+]1(C)CCC(OC(=O)C(c2ccccc2)c2ccccc2)CC1,inactive: -4.5%
7,Cc1cc(C)n(-c2nc3ccccc3nc2Nc2ccc(C(C)C)cc2)n1,inactive: -25.2%
8,CCOCCCNC(=O)c1ccc2c(c1)NC(=O)C(CS(=O)(=O)Cc1ccc(F)cc1Cl)N2 (centres undefined),inactive: -15.7%
9,Cc1cc2[nH]c(=O)c(=O)[nH]c2cc1S(=O)(=O)NCc1ccc(F)cc1,inactive: 3.5%
10,Cc1cc(C)c(NC(=O)C(C)n2c(=O)cc(C)c3c(C)nn(-c4ccccc4)c32)c(C)c1 (centres undefined),inactive: -6.07%
11,CCOc1cccc(NC(=O)C2CC(=O)N(C)C(=Nc3cccc(OC)c3)S2)c1 (centres undefined),inactive: 27.8%
12,O=C(Nc1ccc(Cl)cc1Cl)c1cc(S(=O)(=O)N2CCC3(CC2)OCCO3)ccc1F,inactive: -28.9%
13,O=C(NCc1cccc(F)c1)C1CCN(c2nc3ccccc3nc2C(F)(F)F)CC1,inactive: 11%
14,CC(=O)N1CCc2c(sc3c2c(=O)n(-c2ccccc2)c(=O)n3CC(=O)c2ccc(Cl)cc2)C1,inactive: 4.21%
15,COCCNC(=O)CCn1c(=O)c2cc(OC)c(OC)cc2n(CC(=O)Nc2ccc(F)c(Cl)c2)c1=O,inactive: 4.1%
16,CC(=O)N1CCOc2cc(S(=O)(=O)NCc3ccccc3Cl)c(C)cc21,inactive: -9.1%
17,COc1ccccc1NC(=O)C(Cc1ccccc1)NS(=O)(=O)c1ccc2c(c1)CCN2C(C)=O (centres undefined),inactive: -3.94%
18,O=C(O)c1ccc(Nc2nc3ccccc3c3nncn23)cc1,inactive: 11.4%
19,Cc1cc(C)c(NC(=O)Cn2c(=O)n(-c3cccc(C(F)(F)F)c3)c(=O)c3c(C)c(C)sc32)c(C)c1,inactive: 15.6%
20,CCc1ccccc1Nc1nn2c(=O)c3ccc(C(=O)NCc4ccc(C)cc4)cc3nc2s1,inactive: -3.32%
21,Cc1cccc(OCC(=O)NCC2(N3CCN(C)CC3)CCCCC2)c1C,inactive: -6.8%
22,COc1ccc(OCc2ccc(-c3nc(C#N)c(N4CCC(C)CC4)o3)o2)cc1,inactive: -24.5%
23,CCCNC(=O)C(=O)NCC(c1ccc2c(c1)OCO2)N1CCOCC1 (centres undefined),inactive: -12.9%
24,CCc1ccc(S(=O)(=O)c2nnn(-c3ccc(F)cc3)c2N)cc1,inactive: -1.74%
25,Cc1ccc(NC(=O)c2ccc3snnc3c2)cc1Cl,active: 95.1%
26,C=C(C)Cn1c(SCC(=O)Nc2cc(C)ccc2C)nc2sc3c(c2c1=O)CCCC3,inactive: -5.21%
27,COc1ccc(-c2ccnc3[nH]n(-c4ccccc4)c(=O)c23)cc1,inactive: 18.7%
